{"source": "PubChem BioAssay (NCI)", "system": "NCI-H322M lung", "assay": "NCI-60 cell line screen, 48 h", "note": "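Following 48 hours of exposure in 96-well plates, responses at five concentrations were used to interpolate endpoints linearly. Abbreviation: GI50, concentration required for 50% inhibition of growth. The concentration for full growth arrest is given as TGI.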"}
{"smiles": "CCO/C=N/C1=C(C#N)C(c2ccc(OC)cc2)c2sc3c(CC)cccc3c2O1", "note": "(configuration not stated)", "values": [{"measurement": "GI50", "value": 5.35, "unit": "µM"}, {"measurement": "TGI", "value": 18.5, "unit": "µM"}]}
